Data: the supplement of paper PMC4166925
± gives the standard deviation of the averaged measurements. The full ranking holds about 33,000 sequences; the median of “E-score (dimensionless, -0.5 to 0.5)” is about -0.046, and the highest 2% start at about 0.36. This is one part of the list.

These sequences were tested on T1, SpTbr T-box DNA-binding domain (GST fusion) (assay: PBM E-score of 8-mer (E-score (dimensionless, -0.5 to 0.5)); Tbr is Tbrain of the sea star Patiria miniata (Pm) or the sea urchin Strongylocentrotus purpuratus (Sp); higher = stronger binding preference; most listed sequences are background and not binding sites). Settings: the construct has about 5 more residues each side.
T1 sequence: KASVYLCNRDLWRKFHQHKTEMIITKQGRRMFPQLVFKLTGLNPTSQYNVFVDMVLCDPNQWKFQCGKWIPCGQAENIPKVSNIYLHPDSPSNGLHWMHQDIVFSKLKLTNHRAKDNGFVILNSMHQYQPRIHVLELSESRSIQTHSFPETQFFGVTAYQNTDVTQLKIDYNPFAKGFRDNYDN
In short: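 Universal Agilent oligonucleotide arrays, made double-stranded by primer extension, were incubated with 200 nM GST-fused Tbr T-box DNA-binding domain in PBS (pH 7.5). The protein was expressed in BL21 E. coli at 20 °C and purified by glutathione affinity chromatography. After scanning and quantification, the Universal PBM Analysis Suite assigned an enrichment E-score to each ungapped 8-mer, averaged over duplicate arrays.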

Sequence	PBM E-score of 8-mer
AGCGTCAT	0.129 ± 0.042
TCTGACAA	-0.0245 ± 0.056
CCGTTCCA	-0.0299 ± 0.0058
CGCAACTA	0.158 ± 0.017
AGCTATTA	-0.0958 ± 0.071
GAGCCTAA	-0.155 ± 0.016
ATAATTCA	0.0925 ± 0.0082
GAAGGCGC	0.296 ± 0.052
CGTTAACG	0.372 ± 0.0041
CAAGAACC	-0.0953 ± 0.051
TGCCGTAA	-0.226 ± 0.091
AAAGACCG	-0.13 ± 0.0059
GAAACTGA	-0.0707 ± 0.037
CCGACCTA	-0.128 ± 0.099
GCACTCCC	0.128 ± 0.051
ATCGAGAT	-0.0171 ± 0.015
CGCCTTGA	0.159 ± 0.083
TCGGTCAA	-0.0875 ± 0.048
CGTCGCTA	0.0767 ± 0.0084
ACATAAGT	0.0685 ± 0.044
GATTAAGC	-0.162 ± 0.035
AAACTTCA	-0.089 ± 0.03

Sequence	PBM E-score of 8-mer
CTCCCCGA	-0.181 ± 0.056
CAAATCTG	0.0869 ± 0.0039
AATTTAGC	-0.0817 ± 0.059
ACGCGACG	0.222 ± 0.0027
CACTACAA	0.0532 ± 0.042
AAAGTTCT	-0.194 ± 0.018
ACGGCGAT	-0.0576 ± 0.054
CGAGTCTC	-0.153 ± 0.02
CGACCTAA	-0.0684 ± 0.14
GTTTATAA	-0.153 ± 0.038
ACCCGTGC	0.0692 ± 0.004
CAAGATTG	0.1263 ± 0.00035
CCTGCAGG	-0.124 ± 0.058
CATAGTCA	-0.00255 ± 0.035
AGAAGAGG	-0.174 ± 0.039
ATAACTAC	-0.117 ± 0.085
CACCCCTC	0.276 ± 0.076
GCCACCGC	0.0467 ± 0.069
ATCGGTTA	-0.111 ± 0.0098
GAAGAAAA	-0.106 ± 0.013
CTTTATTC	-0.169 ± 0.063
CCCTGGCC	-0.191 ± 0.056

Sequence	PBM E-score of 8-mer
CATAGGAC	-0.22 ± 0.081
CAGAACGA	-0.0832 ± 0.089
AGATCGCC	0.142 ± 0.045
AGAAACCA	-0.141 ± 0.077
GGGGAAAA	-0.0922 ± 0.036
ATCCTAGC	0.0257 ± 0.025
GTTCTACA	-0.0119 ± 0.053
CGGCTGCA	-0.0602 ± 0.094
CCCATACA	-0.308 ± 0.0056
ACCTAAAC	0.171 ± 0.033
ATGCCTGG	-0.371 ± 0.046
GCTACGTA	-0.199 ± 0.018
ACTTGCAT	-0.0966 ± 0.0011
ATTGCAGC	-0.0538 ± 0.047
ACAGCGGG	0.096 ± 0.033
CTAGTGAG	0.119 ± 0.034
CTTAACTA	0.0561 ± 0.019
ATCTTAAG	-0.0417 ± 0.086
CGTCTGAC	-0.104 ± 0.0052
CAGGTGGA	0.0117 ± 0.025
TGTAACAA	0.167 ± 0.069
ATCAGAAA	-0.0707 ± 0.098

Sequence	PBM E-score of 8-mer
AACGCCCC	0.243 ± 0.04
ATTCTCAG	0.0379 ± 0.094
AATAGGGC	-0.232 ± 0.02
ACTTTCAT	0.00339 ± 0.062
AAAGGCAT	-0.0371 ± 0.035
AGCTGAGC	-0.255 ± 0.096
CTGCGATC	0.106 ± 0.1
GGAGGCGA	0.133 ± 0.011
AATCCTTG	-0.166 ± 0.063
ATTTGCTG	-0.124 ± 0.061
TCGCCAAA	0.00542 ± 0.097
CCTCATTA	-0.227 ± 0.011
AATATCAC	0.192 ± 0.094
CAGCGACC	-0.104 ± 0.0053
AAGTCAAC	0.0738 ± 0.0042
AGTTCTCG	0.238 ± 0.0057
ACGGCTCT	-0.0708 ± 0.02
CAATAAGA	-0.213 ± 0.055
ATCCCCGA	-0.195 ± 0.031
ATACTTCA	-0.13 ± 0.07
